Experimental findings from PMC5988656, “Phase I studies of AZD1208, a proviral integration Moloney virus kinase inhibitor in solid and haematological cancers” (British Journal of Cancer, 2018) are described below.

This continues a long series; more values of the same kind are listed elsewhere.

This series in a line: Solid tumour dose-escalation study: pharmacokinetics (plasma, urine). Type of series: in vivo, human. The method, then:
The schedules for collection of blood and urine samples for PK analyses in each cohort in both studies are described in Supplementary Table 1. When necessary for clinical response assessment in the AML study, a bone marrow sample for PK analysis was collected at Cycle 1, Day 28.
The concentration of AZD1208 in plasma and urine was determined by Covance, on behalf of Clinical Bioanalysis Alliance at AstraZeneca R&D, using a bioanalytical method. A volume of 0.05 ml of K2EDTA human plasma sample was extracted by liquid–liquid extraction using 0.7 ml of methyl tert-butyl ether. Approximately 100 µl of the supernatant was transferred, evaporated to dryness and reconstituted with 350 µl of 1:1 methanol:water, and a 5 µl injection was made to the high-performance liquid chromatography (HPLC) column. HPLC separations were performed on a Phenomenex LUNA C18 (50 × 2 mm, 5 µm) column using a mobile phase of 0.1% formic acid in water (A) and 0.1% formic acid in acetonitrile (B) at a flow rate of 0.6 ml/min and a column temperature of 40 °C. AZD1208-D5 was used as the internal standard. Detection was performed in a Sciex API4000 mass spectrometer, in a positive electrospray ionisation mode, using multiple reaction monitoring detection (AZD1208: 380.0–>248.1; AZD1208-D5: 385.0–>253.1).

With `N[C@@H]1CCCN(c2c(/C=C3\SC(=O)NC3=O)cccc2-c2ccccc2)C1` [AZD1208], the “Plasma concentration of AZD1208, Gmean” value is “n=3 1.793 ng ml” (Cycle 0, Day 1, 0.25 h post-dose, 120 mg); “n=7 12.83 ng ml” (Cycle 0, Day 1, 0.25 h post-dose, 240 mg); “n=6 29.51 ng ml” (Cycle 0, Day 1, 0.25 h post-dose, 360 mg); “n=7 26.29 ng ml” (Cycle 0, Day 1, 0.25 h post-dose, 540 mg); “n=3 20.28 ng ml” (Cycle 0, Day 1, 0.5 h post-dose, 120 mg); “n=7 257.5 ng ml” (Cycle 0, Day 1, 0.5 h post-dose, 240 mg). Moreover, the “Plasma concentration of AZD1208, Gmean” value is listed as “n=6 343.5 ng ml” (Cycle 0, Day 1, 0.5 h post-dose, 360 mg); “n=7 200.2 ng ml” (Cycle 0, Day 1, 0.5 h post-dose, 540 mg); “n=6 139.2 ng ml” (Cycle 0, Day 1, 0.5 h post-dose, 700 mg); “n=6 222.3 ng ml” (Cycle 0, Day 1, 0.5 h post-dose, 800 mg); “n=4 2794 ng ml” (Cycle 1, Day 15, 8 h post-dose, 700 mg); “n=2 2305 ng ml” (Cycle 1, Day 15, 8 h post-dose, 800 mg). Moreover, the “Plasma concentration of AZD1208, Gmean” value runs as follows: (Cycle 1, Day 15, 24 h post-dose, 120 mg) “n=3 919.5 ng ml”; (Cycle 1, Day 15, 24 h post-dose, 240 mg) “n=6 624.5 ng ml”; (Cycle 1, Day 15, 24 h post-dose, 360 mg) “n=3 632.8 ng ml”; (Cycle 1, Day 15, 24 h post-dose, 540 mg) “n=3 459.2 ng ml”; (Cycle 1, Day 15, 24 h post-dose, 700 mg) “n=4 869.7 ng ml”; (Cycle 1, Day 15, 24 h post-dose, 800 mg) “n=2 929.3 ng ml”.
